We go through seven molecules from publication PMC8660637.

The chains behind the UniProt entries cited, without tags or fusion partners.
UniProt O94864: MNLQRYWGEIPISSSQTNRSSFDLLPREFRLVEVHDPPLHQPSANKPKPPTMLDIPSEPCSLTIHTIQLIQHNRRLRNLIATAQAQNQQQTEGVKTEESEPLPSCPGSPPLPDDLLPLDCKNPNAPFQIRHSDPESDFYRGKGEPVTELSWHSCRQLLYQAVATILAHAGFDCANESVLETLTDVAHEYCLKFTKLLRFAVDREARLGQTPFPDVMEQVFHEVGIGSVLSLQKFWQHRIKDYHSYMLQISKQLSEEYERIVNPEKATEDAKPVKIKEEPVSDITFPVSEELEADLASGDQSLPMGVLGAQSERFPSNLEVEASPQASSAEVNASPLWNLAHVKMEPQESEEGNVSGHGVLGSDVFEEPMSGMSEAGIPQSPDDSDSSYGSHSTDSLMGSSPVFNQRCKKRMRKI
UniProt Q92830: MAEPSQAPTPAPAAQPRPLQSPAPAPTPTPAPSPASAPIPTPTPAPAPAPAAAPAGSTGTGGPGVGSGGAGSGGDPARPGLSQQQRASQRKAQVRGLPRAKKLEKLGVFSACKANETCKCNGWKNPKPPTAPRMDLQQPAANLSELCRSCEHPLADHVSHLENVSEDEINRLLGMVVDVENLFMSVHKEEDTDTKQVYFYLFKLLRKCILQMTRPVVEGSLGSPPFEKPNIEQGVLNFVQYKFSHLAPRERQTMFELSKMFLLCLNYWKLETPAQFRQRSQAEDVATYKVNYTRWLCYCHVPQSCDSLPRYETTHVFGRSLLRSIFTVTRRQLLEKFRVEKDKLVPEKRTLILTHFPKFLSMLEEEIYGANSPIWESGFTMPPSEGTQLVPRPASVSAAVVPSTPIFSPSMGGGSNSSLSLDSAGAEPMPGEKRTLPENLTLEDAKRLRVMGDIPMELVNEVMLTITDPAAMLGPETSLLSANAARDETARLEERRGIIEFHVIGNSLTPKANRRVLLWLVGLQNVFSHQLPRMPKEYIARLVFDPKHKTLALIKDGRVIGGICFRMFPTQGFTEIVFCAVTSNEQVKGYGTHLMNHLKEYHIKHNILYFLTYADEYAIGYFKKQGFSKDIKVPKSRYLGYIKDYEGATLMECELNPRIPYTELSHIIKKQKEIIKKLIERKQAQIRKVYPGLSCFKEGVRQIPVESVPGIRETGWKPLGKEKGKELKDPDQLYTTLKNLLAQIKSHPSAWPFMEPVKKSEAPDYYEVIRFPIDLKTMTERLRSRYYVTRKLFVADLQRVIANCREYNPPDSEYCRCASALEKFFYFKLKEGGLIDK
UniProt Q12962: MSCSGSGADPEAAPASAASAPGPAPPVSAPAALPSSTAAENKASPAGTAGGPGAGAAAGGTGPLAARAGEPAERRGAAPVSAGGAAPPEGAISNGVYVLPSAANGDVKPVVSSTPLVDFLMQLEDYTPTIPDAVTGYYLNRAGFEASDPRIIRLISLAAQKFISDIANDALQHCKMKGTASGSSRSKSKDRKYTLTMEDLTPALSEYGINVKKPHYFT
UniProt P20226: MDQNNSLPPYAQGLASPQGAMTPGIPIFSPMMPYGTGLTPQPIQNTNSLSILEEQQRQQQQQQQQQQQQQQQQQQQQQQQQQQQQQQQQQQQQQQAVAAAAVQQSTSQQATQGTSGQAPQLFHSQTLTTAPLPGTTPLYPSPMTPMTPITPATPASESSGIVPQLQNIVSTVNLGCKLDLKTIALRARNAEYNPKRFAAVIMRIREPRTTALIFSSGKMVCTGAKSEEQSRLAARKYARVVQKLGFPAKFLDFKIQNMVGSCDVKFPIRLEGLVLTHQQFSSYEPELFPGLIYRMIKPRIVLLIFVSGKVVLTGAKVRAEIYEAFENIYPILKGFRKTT

In this assay the target is SUPT7L-Halo-(FLAG)3 (human (endogenous in HeLa)) (UniProt O94864). As to the kind of experiment: co-IP; SUPT7L-Halo-(FLAG)3 captured on FLAG M2 resin from the dialyzed phosphocellulose P0.5 M fraction of HeLa nuclear extract (150 mM KCl, 0.1% IGEPAL CA-630, 12 h, 4 °C), washes up to 0.6 M NaCl, 3xFLAG peptide elution; western blot of lysate and elution. (Immunoblotting shows a protein as a band on a membrane.)

Results are given in words; binding and its absence hold for the method and conditions named. In cells and extracts the contact can be indirect. Some entries that bind do so weakly or less than the wild type.

On to KAT2A (from UniProt Q92830 1-837), for which the binding entry is listed as “binds”.

As for TAF9B (from UniProt Q9HBM6 1-251), the binding entry is recorded as “binds”.

As to TAF10 (from UniProt Q12962 1-218), the binding entry was “binds”.

Take “TBP (TATA-box binding protein), endogenous in HeLa (from UniProt P20226 1-339)”: the binding entry is “no binding”.

B1: USP22 (protein, UniProt Q9UPT9 1-525)
chain: MVSRPEPEGEAMDAELAVAPPGCSHLGSFKVDNWKQNLRAIYQCFVWSGTAEARKRKAKSCICHVCGVHLNRLHSCLYCVFFGCFTKKHIHEHAKAKRHNLAIDLMYGGIYCFLCQDYIYDKDMEIIAKEEQRKAWKMQGVGEKFSTWEPTKRELELLKHNPKRRKITSNCTIGLRGLINLGNTCFMNCIVQALTHTPLLRDFFLSDRHRCEMQSPSSCLVCEMSSLFQEFYSGHRSPHIPYKLLHLVWTHARHLAGYEQQDAHEFLIAALDVLHRHCKGDDNGKKANNPNHCNCIIDQIFTGGLQSDVTCQVCHGVSTTIDPFWDISLDLPGSSTPFWPLSPGSEGNVVNGESHVSGTTTLTDCLRRFTRPEHLGSSAKIKCSGCHSYQESTKQLTMKKLPIVACFHLKRFEHSAKLRRKITTYVSFPLELDMTPFMASSKESRMNGQYQQPTDSLNNDNKYSLFAVVNHQGTLESGHYTSFIRQHKDQWFKCDDAIITKASIKDVLDSEGYLLFYHKQFLEYE
B1: the binding entry is “binds”.

B2: ENY2 (protein, UniProt Q9NPA8 1-101)
chain: MVVSKMNKDAQMRAAINQKLIETGERERLKELLRAKLIECGWKDQLKAHCKEVIKEKGLEHVTVDDLVAEITPKGRALVPDSVKKELLQRIRTFLAQHASL
With B2, the binding entry is “binds”.

B3: TADA2B (protein, UniProt Q86TJ2 1-420)
chain: MAELGKKYCVYCLAEVSPLRFRCTECQDIELCPECFSAGAEIGHHRRYHGYQLVDGGRFTLWGPEAEGGWTSREEQLLLDAIEQFGFGNWEDMAAHVGASRTPQEVMEHYVSMYIHGNLGKACIPDTIPNRVTDHTCPSGGPLSPSLTTPLPPLDISVAEQQQLGYMPLRDDYEIEYDQDAETLISGLSVNYDDDDVEIELKRAHVDMYVRKLKERQRRKNIARDYNLVPAFLGKDKKEKEKALKRKITKEEKELRLKLRPLYQFMSCKEFDDLFENMHKEKMLRAKIRELQRYRRNGITKMEESAEYEAARHKREKRKENKNLAGSKRGKEDGKDSEFAAIENLPGFELLSDREKVLCSSLNLSPARYVTVKTIIIKDHLQKRQGIPSKSRLPSYLDKVLKKRILNFLTESGWISRDAS
Take B3: the binding entry is “binds”.
